# The IC50 comes from the fitted curve, where viability falls to half of the control; a fit beyond the top or the lowest dose is shown as a bound at that dose. AUC, from the same fit, is the share of area under the viability curve across the 256-fold dose range: 1 means no effect, lower means more sensitive. For some of these results: The top dose, if marked as inferred, is not printed in the source and was worked back from the curve model. For some of these results: Where an entry number is given, a second screen of the drug exists; the two often differ.
# Legend:
# Test in all cases: Viability of human cancer cell lines after 72 h of drug (GDSC screen)
# 5-Fluorouracil = compound: O=c1[nH]cc(F)c(=O)[nH]1 [5-Fluorouracil]; settings: top dose 32 µM; top dose inferred
# Method: (§1)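 Human cancer cell lines in 384-well plates, medium with 10% serum, drug for 72 h over a 256-fold dose range (nine 2-fold or five 4-fold steps up to the top dose). Adherent lines were fixed and stained with the nucleic acid dye Syto60, suspension lines read with resazurin; signal relative to control wells, capped at 0 and 100%. One two-parameter sigmoid per drug and line, fitted in a mixed model over all curves with the slope shared within a line.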
# AC220 = compound: CC(C)(C)c1cc(NC(=O)Nc2ccc(-c3cn4c(n3)sc3cc(OCCN5CCOCC5)ccc34)cc2)no1 [AC220]; settings: top dose 1.024 µM; top dose inferred
# Method: as §1
# CUDC-101 = compound: C#Cc1cccc(Nc2ncnc3cc(OC)c(OCCCCCCC(=O)NO)cc23)c1 [CUDC-101]; settings: top dose 5.12 µM; top dose inferred
# Method: as §1
# RDEA119 = compound: COc1cc(F)c(F)c(Nc2ccc(I)cc2F)c1NS(=O)(=O)C1(C[C@H](O)CO)CC1 [RDEA119]; settings: top dose 5 µM, top dose inferred
# Method: as §1
# OSU-03012 = compound: NCC(=O)Nc1ccc(-n2nc(C(F)(F)F)cc2-c2ccc3c(ccc4ccccc43)c2)cc1 [OSU-03012]; settings: top dose 16 µM; top dose inferred
# Method: as §1
# JNK-9L = compound: Fc1cc(-c2ccnc(Nc3ccc(-n4cnc(N5CCOCC5)n4)cc3)n2)cc(N2CCOCC2)c1 [JNK-9L]; settings: top dose 5.12 µM; top dose inferred
# Method: as §1
# QS11 = compound: OC[C@H](Cc1ccccc1)Nc1nc(Oc2ccc3c(c2)CCC3)nc2c1ncn2Cc1ccc(-c2ccccc2)cc1 [QS11]; settings: top dose 10.24 µM
# Method: as §1
Cell Line,AUC (5-Fluorouracil),IC50 (5-Fluorouracil) [nM],AUC (AC220),IC50 (AC220) [nM],AUC (CUDC-101),IC50 (CUDC-101) [nM],AUC (RDEA119; screen: GDSC drug entry 1014),IC50 (RDEA119; screen: GDSC drug entry 1014) [nM],AUC (RDEA119; screen: GDSC drug entry 1526),IC50 (RDEA119; screen: GDSC drug entry 1526) [nM],AUC (OSU-03012),IC50 (OSU-03012) [nM],AUC (JNK-9L),IC50 (JNK-9L) [nM],AUC (QS11),IC50 (QS11) [nM]
"OVK-18 (ovary, adherent)",0.703,7980,0.983,> 1020,0.968,> 5120,0.72,1420,0.825,3430,–,–,–,–,–,–
"YMB-1-E (breast, adherent)",0.837,> 32000,0.963,> 1020,0.811,4050,–,–,–,–,–,–,–,–,–,–
"EMC-BAC-2 (lung adenocarcinoma, adherent)",0.862,> 32000,0.979,> 1020,0.545,433,0.638,808,0.798,2910,–,–,–,–,–,–
"D-566MG (glioma, adherent)",0.885,> 32000,0.982,> 1020,0.458,246,0.862,4170,–,–,–,–,–,–,–,–
"DOV13 (ovary, adherent)",0.768,13800,0.983,> 1020,0.966,> 5120,0.723,1500,0.776,2320,–,–,–,–,–,–
"NCC021 (kidney, adherent)",0.969,> 32000,0.983,> 1020,0.625,751,0.916,> 5000,0.913,> 5000,–,–,–,–,–,–
"SNU-407 (large intestine, adherent)",0.589,3650,0.942,> 1020,0.609,672,0.687,1150,0.303,78.8,–,–,–,–,–,–
"MOLT-13 (T-cell lymphoblastic leukaemia, suspension)",0.928,> 32000,0.903,> 1020,0.118,24,0.44,219,0.596,552,–,–,–,–,–,–
"UWB1.289 (ovary, adherent)",0.956,> 32000,0.973,> 1020,0.563,517,0.912,> 5000,0.898,> 5000,–,–,–,–,–,–
"OV-7 (ovary, adherent)",0.906,> 32000,0.942,> 1020,0.687,1420,0.827,> 5000,0.803,4220,–,–,–,–,–,–
"SK-GT-4 (oesophagus, adherent)",0.889,> 32000,0.981,> 1020,0.455,235,0.555,457,0.55,442,–,–,–,–,–,–
"SNU-C5 (large intestine, adherent)",0.868,> 32000,0.981,> 1020,0.641,819,0.707,1280,0.719,1400,–,–,–,–,–,–
"SK-MG-1 (glioma, adherent)",0.927,> 32000,0.973,> 1020,0.535,399,0.913,> 5000,0.916,> 5000,–,–,–,–,–,–
"CADO-ES1 (Ewing sarcoma, suspension)",0.486,1830,0.957,> 1020,0.544,422,0.984,> 5000,0.96,> 5000,–,–,–,–,–,–
"OACM5-1 (oesophagus, semi-adherent)",0.758,12400,0.77,439,0.532,395,0.986,> 5000,0.984,> 5000,–,–,–,–,–,–
"RCC-JF (kidney, adherent)",0.668,6270,0.978,> 1020,0.55,446,0.561,470,0.721,1450,–,–,–,–,–,–
"OC-314 (ovary, adherent)",0.512,2140,0.991,> 1020,0.507,334,0.929,> 5000,0.893,4480,–,–,–,–,–,–
"PEO1 (ovary, adherent)",0.956,> 32000,0.987,> 1020,0.393,160,0.834,3450,0.805,2650,–,–,–,–,–,–
"ESO51 (oesophagus, semi-adherent)",0.598,4160,0.98,> 1020,0.659,1070,0.554,466,0.805,3860,–,–,–,–,–,–
"COR-L321 (lung, suspension)",0.894,> 32000,0.948,> 1020,0.16,29.1,0.984,> 5000,0.987,> 5000,–,–,–,–,–,–
"SW1116 (large intestine, adherent)",0.985,> 32000,0.984,> 1020,0.757,2360,–,–,0.717,1630,–,–,–,–,–,–
"HSC-2 (head and neck, adherent)",–,–,0.989,> 1020,0.61,625,0.833,2890,0.89,> 5000,0.602,1860,0.452,240,0.876,8850
"A498 (kidney, adherent)",–,–,0.978,> 1020,0.953,> 5120,0.861,> 5000,0.779,3190,0.961,> 16000,0.462,239,0.977,> 10200
"NCI-H1437 (lung adenocarcinoma, adherent)",–,–,0.904,> 1020,0.742,1630,0.553,439,–,–,0.799,8050,0.518,358,0.804,5360
"MDA-MB-453 (breast, adherent)",–,–,0.966,> 1020,0.255,58.1,0.979,> 5000,0.952,> 5000,0.805,9160,0.809,3060,0.903,> 10200

# Source: the supplement of paper PMC4967469
